The structures appear in SMILES notation. The list shows a part of the results. No stated cut-off is given here; in the data, active = 25% or less and inactive = the rest. Single values are uncertain, as repeats are few or missing.

The subject of assay [1] is Salmonella enterica serovar Typhimurium SL1344. Kind of assay: bacterial growth OD600 after 18 h in MHB with 0.5 µg/mL polymyxin B; higher = more bacterial growth (less inhibition). As to conditions: 25 µM; polymyxin B 0.5 µg/mL; system: broth. The method, then:
(§1)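 Secondary screen of the 553 primary hits at 25 µM. (i) S. Typhimurium SL1344 grown in Mueller-Hinton broth with 0.5 µg/mL polymyxin B, OD600 read after 18 h. (ii) SAFIRE assay: RAW 264.7 macrophages infected with S. Typhimurium sifB::gfp (MOI 30); compound added 2 h post-infection; cells fixed at 18 h; GFP-positive pixel fraction per macrophage imaged by confocal microscopy and expressed as % of DMSO control.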

The test system is the same in assay [2]. The assay is described as follows: intramacrophage bacterial GFP load (SAFIRE), percent of DMSO control (% of DMSO); higher = more intracellular bacteria (less inhibition). As to conditions: 25 µM; system: infected RAW 264.7 macrophages. The procedure:
as §1
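Wherever bacterial growth OD600 after 18 h in MHB with 0.5 µg/mL polymyxin B is given: polymyxin B level opens the outer membrane while sparing the inner membrane, with novobiocin wells as reference growth inhibitor.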
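Wherever intramacrophage bacterial GFP load (SAFIRE), percent of DMSO control is given: compounds tested were the hits of an earlier 50 µM broth growth screen of a drug-like diversity library run with polymyxin B.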

Turning to `Cc1ccc(CN(C)C(=O)CC2(c3cccc(C(F)(F)F)c3)CC(=O)N(C3CC3)C2=O)cc1` (stereo not drawn), in assay [1], the “bacterial growth OD600” value was 0.002. For the same molecule, in assay [2], the “intramacrophage bacterial GFP load” value is inactive: 239.

On to `CCOC(=O)C1(CCc2ccccc2)CCN(C(=O)c2occc2C)CC1`, for which, in assay [1], the “bacterial growth OD600” value was 0.003. In addition, the “intramacrophage bacterial GFP load” value in assay [2] is inactive: 29.8.

For the molecule `COc1ccc(C(=O)N2CCCC(Nc3ccc(C(C)C)cc3)C2)cc1F` (stereo not drawn), the “bacterial growth OD600” value in assay [1] turned out to be 0.004. The “intramacrophage bacterial GFP load” value in assay [2] is inactive: 79.5.

For `CN(CCc1ccccc1)C(=O)CC1(c2ccccc2)CC(=O)N(Cc2ccc3c(c2)OCO3)C1=O` (stereo not drawn), the “bacterial growth OD600” value in assay [1] is -0.003. Besides, in assay [2], the “intramacrophage bacterial GFP load” value was inactive: 116.

`CCS(=O)(=O)c1ncc(CN(C)C(C)c2ccccc2OC)n1Cc1ccccc1` (stereo not drawn): the “bacterial growth OD600” value in assay [1] was 0.003. The “intramacrophage bacterial GFP load” value in assay [2] is active: 21.

Regarding `Cc1oc(-c2cccc(Oc3ccccc3)c2)nc1CN1CCN(c2cnccn2)CC1`, the “bacterial growth OD600” value in assay [1] is -0.001. Moreover, the “intramacrophage bacterial GFP load” value in assay [2] was active: 14.

As to `COc1ccccc1CCC(=O)Nc1cnn(CC(=O)NC(C)c2nc(-c3ccccc3)no2)c1` (stereo not drawn), the “bacterial growth OD600” value in assay [1] was determined as 0.442. Moreover, in assay [2], the “intramacrophage bacterial GFP load” value was inactive: 130.

On to `CCS(=O)(=O)c1ncc(CN(C)Cc2ccc(C)cc2)n1CCc1ccccc1`, for which the “bacterial growth OD600” value in assay [1] is -0.003. Besides, in assay [2], the “intramacrophage bacterial GFP load” value was inactive: 53.7.

With `CCN(CC)c1ncccc1CNC(=O)c1cccs1`, in assay [1], the “bacterial growth OD600” value was found to be 0.581. Also, the “intramacrophage bacterial GFP load” value in assay [2] is inactive: 89.4.

As for `Cc1csc(CN(C)C(=O)c2csc3nc(-c4cccc(Cl)c4)cn23)n1`, the “bacterial growth OD600” value in assay [1] came out at 0.001. Also, the “intramacrophage bacterial GFP load” value in assay [2] is inactive: 150.

With `Cc1c(C(=O)N2CCCCC2)sc2ncnc(N3CCCCCCC3)c12`, in assay [1], the “bacterial growth OD600” value is 0.006. Further, the “intramacrophage bacterial GFP load” value in assay [2] was inactive: 51.

`O=C(CCN1Cc2ccccc2OC(c2ccccc2)C1)N1CCC(Oc2cccnc2)CC1` (stereo not drawn): the “bacterial growth OD600” value in assay [1] came to 0.003. Further, the “intramacrophage bacterial GFP load” value in assay [2] was active: 20.7.

Turning to `Cc1ccc2c(c1)CN(Cc1cn(C)nc1C)CC(c1ccsc1)O2` (stereo not drawn), the “bacterial growth OD600” value in assay [1] is 0.393. Moreover, the “intramacrophage bacterial GFP load” value in assay [2] is inactive: 65.8.

Turning to `CO[C@H]1[C@H](NC(=O)c2ccncc2)c2ccccc2C12CCN(C(=O)c1ccc(CC(C)C)cc1)CC2`, the “bacterial growth OD600” value in assay [1] was 0.001. Moreover, the “intramacrophage bacterial GFP load” value in assay [2] is inactive: 172.

The record behind these values is the supplement of paper PMC12889115.
